Results as given in patent US7629351B2, “N-((1R,2S,5R)-5-(tert-butylamino)-2-((S)-2-oxo-3-(6-(trifluoromethyl)quinazolin-4-ylamino) pyrrolidin-1-yl)cyclohexyl)acetamide and other modulators of chemokine receptor activity, crystalline forms and process” (Bristol-Myers Squibb Company, priority 2006, dated 2009).
Read-outs that look alike come from different tables or passages of the source.

Tested on: Sodium Channel, Site 2

SMILES: CC(=O)N[C@@H]1C[C@H](NC(C)(C)C)CC[C@@H]1N1CC[C@H](Nc2ncnc3ccc(C(F)(F)F)cc23)C1=O [Example 1, N-((1R,2S,5R)-5-(tert-butylamino)-2-((S)-2-oxo-3-(6-(trifluoromethyl)quinazolin-4-ylamino)pyrrolidin-1-yl)cyclohexyl)acetamide]
- Na+ channel binding (% inhibition) (10,000 nM): 13%, 10,000 nM
- Na+ channel binding (% inhibition) (30,000 nM): 32%, 30,000 nM
